# Measurements: the BET-seq Pho4 binding data (Le et al. 2018)
# This is one part of the list. These are noisy estimates, calculated here from bound and input reads.
# Target: T1, Pho4 (S. cerevisiae) (UniProt P07270)
# T1 sequence: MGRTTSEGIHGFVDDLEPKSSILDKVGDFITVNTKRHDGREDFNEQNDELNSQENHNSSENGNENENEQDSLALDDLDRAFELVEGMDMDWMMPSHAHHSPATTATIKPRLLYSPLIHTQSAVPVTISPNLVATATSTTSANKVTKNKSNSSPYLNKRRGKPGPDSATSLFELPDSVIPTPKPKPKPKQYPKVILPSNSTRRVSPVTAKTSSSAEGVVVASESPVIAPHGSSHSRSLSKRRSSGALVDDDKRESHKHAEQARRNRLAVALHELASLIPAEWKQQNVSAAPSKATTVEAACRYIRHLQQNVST
# Assay: relative binding free energy (BET-seq); higher = weaker binding
# Conditions: reference: library average
row,Sequence,relative binding free energy [kcal/mol]
1,TATAGCACGTGCATTT,0.02
2,AGTGTCACGTGACGGA,0.11
3,TTTGACACGTGTTGGT,0.02
4,CTAAGCACGTGAGGTT,0.27
5,TTGTGCACGTGTTACG,0.03
6,GAAGGCACGTGGGGAA,-0.06
7,TGCGGCACGTGAATGT,0.2
8,AGGTTCACGTGTTTTA,0.36
9,AATGGCACGTGACGTT,0.03
10,GAGGGCACGTGTTTTG,-0.03
11,TTAAGCACGTGATTAG,-0.06
12,TTGGTCACGTGAAATT,0.44
13,TTTGACACGTGGATTT,0.13
14,TTGTGCACGTGCGTTC,-0.26
15,AGTGCCACGTGTAATG,-0.01
16,TTGGGCACGTGCATCG,-0.18
17,ACTAGCACGTGGGGCG,-0.22
18,TTGACCACGTGGTGTG,-0.14
19,TAAATCACGTGATGTT,0.23
20,TAGTACACGTGAAGGG,0.33
21,GATAACACGTGGGTGA,-0.02
22,CAGGTCACGTGATGTA,0.17
23,TATATCACGTGGGTCG,-0.01

row,Sequence,relative binding free energy [kcal/mol]
1,GTCTGCACGTGATTGT,0.14
2,GTTTGCACGTGGAAGC,0.09
3,TGTTGCACGTGCGCGA,-0.08
4,AGATTCACGTGGTGCG,0.23
5,AGGTACACGTGGGGAT,0.05
6,TTGGCCACGTGGGCGT,-0.15
7,CGTATCACGTGGGAGC,0.17
8,TTTAGCACGTGCAGGT,0.02
9,GTGGGCACGTGCGTCG,-0.07
10,CTGTTCACGTGGATGT,0.22
11,AGTGTCACGTGTTCTG,-0.02
12,GGGTTCACGTGTGCAT,0.33
13,GGTGGCACGTGGACGC,-0.13
14,TGCGGCACGTGATCTG,0
15,AAGGTCACGTGTGTCA,0.05
16,TTGTCCACGTGGGAGC,0.09
17,TATTGCACGTGTTGTC,0
18,GGCGACACGTGTTGGG,0.12
19,GTAGTCACGTGGCTAT,0.12
20,CTTACCACGTGGGGGG,-0.28
21,AAGGTCACGTGAATGA,0.37
22,TTCTTCACGTGAAGGG,0.45
23,CTATGCACGTGGGGCG,-0.29

row,Sequence,relative binding free energy [kcal/mol]
1,ATTGTCACGTGGGTTG,-0.09
2,GTTTTCACGTGACTTT,0.36
3,GGATGCACGTGGGAGC,-0.03
4,AGTTTCACGTGCAGGT,0.15
5,ATGTGCACGTGTCTTT,-0.01
6,GTACTCACGTGGTTGG,0.29
7,TTTAACACGTGTGAAG,0.13
8,TTGTACACGTGCTTGA,0.04
9,TCTTTCACGTGGGTTG,0.19
10,GTGGACACGTGTTTAG,0.19
11,ATCTTCACGTGTTGTG,0.15
12,ATCATCACGTGGTTTT,0.03
13,GCTGGCACGTGGGAGG,-0.16
14,GGTTGCACGTGGCTCT,-0.06
15,GTTGTCACGTGTGAAA,0.29
16,TATAGCACGTGTTGGC,-0.02
17,GGAGTCACGTGGGGGT,0.1
18,TTTTACACGTGCGGGA,0.19
19,ATATGCACGTGCGTTA,-0.21
20,CGATGCACGTGGGGGC,-0.12
21,TTGGTCACGTGGAGGG,0.06
22,GTAGGCACGTGATGGA,0.07
23,GTGAGCACGTGATAGA,0.1

row,Sequence,relative binding free energy [kcal/mol]
1,ATTTGCACGTGAGATA,0.22
2,TATTACACGTGGTACT,0
3,GGGCGCACGTGGGAGA,-0.13
4,GATTTCACGTGATATT,0.39
5,TTGGTCACGTGTACAG,0.05
6,TTAGCCACGTGGAGGT,-0.11
7,CTTCTCACGTGTTTTT,0.19
8,ACGGGCACGTGGTTTT,-0.05
9,TTTTGCACGTGACATG,0.03
10,TGAGTCACGTGATGCA,0.16
11,TTTTTCACGTGGGACA,0.09
12,AGTGTCACGTGTGATC,0.03
13,GTTAGCACGTGGGCGG,-0.12
14,CCAGGCACGTGGTAGG,-0.1
15,AGTCGCACGTGAGCGG,0.06
16,CGCAACACGTGAGGGT,0.45
17,AGTTACACGTGCGCGG,0.04
18,GTGTTCACGTGGGCCG,0.26
19,CGAGTCACGTGGGATG,0.02
20,ATGGTCACGTGGGCGC,-0.01
21,CTTAGCACGTGGATGT,-0.15
22,CGTTACACGTGGGGAC,0.13
23,GACTGCACGTGATTGG,0.14

row,Sequence,relative binding free energy [kcal/mol]
1,TTGAGCACGTGATAGA,-0.05
2,CTTGGCACGTGAAGGA,0.15
3,TTTGTCACGTGTTTAA,0.05
4,TAGCTCACGTGTAGGG,0.21
5,TTCGTCACGTGTTACG,0.2
6,AGTGGCACGTGCATTT,-0.14
7,GGTATCACGTGATAAG,0.22
8,AGGTGCACGTGTGACG,0.11
9,ATATACACGTGAGTAG,0.18
10,GTTTTCACGTGGATGA,0.28
11,GAAAGCACGTGGGTAT,-0.11
12,ATGGGCACGTGCGCTG,-0.25
13,TCGCTCACGTGGATGG,0.17
14,GGTTACACGTGGAATG,0.23
15,CCTATCACGTGGTGTG,0.06
16,GCGGGCACGTGTTTTA,-0.06
17,GGCGACACGTGGGTCT,-0.01
18,TGTAACACGTGTTGGG,-0.02
19,GTAAGCACGTGCTATG,-0.04
20,GATTGCACGTGTTAGA,0.03
21,AGTATCACGTGCAGTG,0
22,TGGCACACGTGGTGAT,-0.12
23,TGGAACACGTGAATGG,0.23
